Measured values from paper PMC4336329 (PLoS ONE, 2015).
In all, about 310,000 compounds went through this assay and about 14,000 (4.5%) showed an effect of 50% or more. The effect is printed as a negative number. The list shows a part of the results.

Biological target: human ether-à-go-go-related gene (hERG) potassium channel (human, UniProt Q12809)
Assay: primary screen, population patch clamp on CHO cells stably expressing hERG
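Further: peak tail current of the secondary pulse compared with the same well before compound.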

human ether-à-go-go-related gene (hERG) potassium channel, sequence (Q12809 whole entry, looked up): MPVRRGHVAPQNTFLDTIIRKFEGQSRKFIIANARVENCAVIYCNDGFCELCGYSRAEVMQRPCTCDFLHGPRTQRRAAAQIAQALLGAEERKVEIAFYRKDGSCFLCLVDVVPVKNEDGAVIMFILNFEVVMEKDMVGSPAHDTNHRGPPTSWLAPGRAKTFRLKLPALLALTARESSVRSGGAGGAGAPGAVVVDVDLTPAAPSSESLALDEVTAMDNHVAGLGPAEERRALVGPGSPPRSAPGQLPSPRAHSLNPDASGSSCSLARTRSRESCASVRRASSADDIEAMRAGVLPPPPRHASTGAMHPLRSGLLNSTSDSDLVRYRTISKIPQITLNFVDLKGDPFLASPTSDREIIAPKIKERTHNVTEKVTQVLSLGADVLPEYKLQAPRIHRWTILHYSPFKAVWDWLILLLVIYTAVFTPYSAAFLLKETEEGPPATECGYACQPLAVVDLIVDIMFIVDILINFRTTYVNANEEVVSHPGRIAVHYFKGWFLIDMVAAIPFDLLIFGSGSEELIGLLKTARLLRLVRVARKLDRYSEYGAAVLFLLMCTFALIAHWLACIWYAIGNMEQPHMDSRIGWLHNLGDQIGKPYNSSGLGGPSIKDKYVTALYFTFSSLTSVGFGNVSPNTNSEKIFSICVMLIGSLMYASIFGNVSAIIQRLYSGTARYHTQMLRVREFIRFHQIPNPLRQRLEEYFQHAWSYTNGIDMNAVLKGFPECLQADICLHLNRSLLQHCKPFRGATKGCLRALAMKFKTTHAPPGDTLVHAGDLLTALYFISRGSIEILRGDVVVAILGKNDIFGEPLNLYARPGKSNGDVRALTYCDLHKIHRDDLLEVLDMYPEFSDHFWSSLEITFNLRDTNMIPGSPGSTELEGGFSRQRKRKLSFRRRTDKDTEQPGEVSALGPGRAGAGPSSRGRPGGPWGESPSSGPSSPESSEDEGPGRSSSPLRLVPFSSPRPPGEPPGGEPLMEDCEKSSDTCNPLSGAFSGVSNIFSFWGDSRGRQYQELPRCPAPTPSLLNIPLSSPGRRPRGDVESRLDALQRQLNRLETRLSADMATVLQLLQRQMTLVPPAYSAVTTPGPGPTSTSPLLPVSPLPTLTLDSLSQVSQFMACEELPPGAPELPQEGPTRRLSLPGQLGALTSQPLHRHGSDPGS

Row | SMILES | hERG current change (%, negative = inhibition) at 10uM
1 | COc1ccc(C2=CC3=C(Br)C(=O)C(C)(OC(=O)c4ccco4)C(=O)C3=CO2)cc1 (stereo not drawn) | 17.7%
2 | CC(C)Cn1cc(C(=O)N2CCC3(CC2)OCCO3)c2c3ccccc3n(C)c2c1=O | -5.7%
3 | COC(=O)[C@H](CC(C)C)NC(=O)N1CCCCC1 | 11%
4 | COCCN(Cc1cn(C)nc1-c1ccc(Oc2ccccc2)cc1)C(C)C | -43.3%
5 | CCc1noc(C)c1C(=O)Nc1nc(-c2cc(OC)ccc2OC)cs1 | -3.31%
6 | Cc1ccc(C(=O)NCCSC(C)(C)C)cc1[N+](=O)[O-] | -15.8%
7 | COc1ccccc1N1CCN(Cc2ccc(F)cc2)CC1 | -14.7%
8 | CN1CCC(=NNC(=O)C(=O)NC2CCCC2)CC1 | 12.7%
9 | COc1cc(C(=O)c2ccccc2)c(OC)cc1C(=O)Nc1ccc(O)cc1 | -27.4%
10 | Cc1ccc(-c2nc(C(=O)O)cs2)cc1 | 17.8%
11 | C=CCn1c2ccccc2n2nc(C)c(=O)nc12 | -0.579%
12 | CN(C)S(=O)(=O)c1cccc(NC(=O)COC(=O)CCOc2ccccc2)c1 | 5.81%
13 | CCOC(=O)c1c(S(=O)(=O)NCC(=O)Nc2cccc(C)n2)c(C)n(C)c1C | 18.3%
14 | CCN(CC)C(=O)c1ccc(C)c(Br)c1 | -0.776%
15 | COc1ccc(C/C(=N\OC(C)=O)c2ccc(OC)cc2)cc1 | -1.98%
16 | CCOc1ccc(CC(=NCCO)C2=C(O)CC(C)(C)CC2=O)cc1OCC | 1.83%
17 | CC1CN(CCCCOc2ccc3ccccc3c2)CC(C)O1 (stereo not drawn) | -7.6%
18 | O=c1[nH]c(=O)n(-c2ccc(F)cc2)c(O)c1/C=C1\C=Nc2ccccc21 | 6.63%
19 | CCOC(=O)c1c(C)[nH]c(C(=O)OCC(=O)c2ccc3c(c2)NC(=O)CO3)c1C | 5.51%
20 | N#CCCn1cc(C(=O)Nc2ccc([N+](=O)[O-])cc2)c(-c2cc3ccccc3o2)n1 | 24.7%
21 | CC1CN(CN2C(=O)c3ccccc3C2=O)CC(C)O1 (stereo not drawn) | -3.94%
22 | COc1ccc(CNCCc2ccc(Cl)cc2)c(OC)c1OC.O=C(O)C(=O)O | -51.6%

Row | SMILES | hERG current change (%, negative = inhibition) at 10uM
23 | COc1cccc(CNCC(=O)Nc2ccc(N3CCOCC3)cc2)c1.O=C(O)C(=O)O | -1.05%
24 | Br.O=S1(=O)C[C@@H]2N=C(N/N=C/c3ccccc3)S[C@@H]2C1 | -5.87%
25 | CC(C)N1CCC(N2CCN(CCCc3ccccc3)CC2CCO)CC1 (stereo not drawn) | 10.1%
26 | Cc1nc2cc(NC(=O)NCc3ccccc3)ccc2o1 | 14.6%
27 | COc1ccc2cc3cc(C(=O)N4CCN(C5CCCCC5)CC4)oc3nc2c1 | 6.25%
28 | Cc1ccccc1-n1ncc2c1CC(C)(C)CC2NC(=O)C1CCC1 (stereo not drawn) | -12.2%
29 | O=C(O)Cc1sc(Nc2cccc3ccccc23)nc1-c1ccc(Cl)cc1 | 22.5%
30 | Cc1cnc(C(=O)OCC(=O)NC2CCCCC2)cn1 | 7.81%
31 | O=C(COc1ccc(F)cc1)Nc1nnc(C2CCCCC2)s1 | 20.4%
32 | O=C(CSc1nc2ccccc2s1)Nc1ccc(C(=O)O)cc1 | 2.96%
33 | COc1ccccc1C(=O)NC(=O)COC(=O)CCOc1ccc(C)cc1 | 17.3%
34 | CC(C)c1cc(-c2cc(-c3ccc(Cl)cc3)on2)nc(NCC2CC2)n1 | 12.9%
35 | Cc1cccc(C(=O)N/C(=C\c2ccco2)C(=O)N2CCCCCC2)c1 | -11.2%
36 | Cc1ccc([N+](=O)[O-])cc1S(=O)(=O)N(C(=O)c1ccncc1)c1ccc2oc3c(c2c1)CCCC3 | -1.37%
37 | O=C1c2cccc3cc([N+](=O)[O-])cc(c23)C(=O)N1CC1CCCO1 (stereo not drawn) | -8.56%
38 | CCn1c(=O)cc(OCC(=O)Nc2cccc(C)n2)c2ccccc21 | -14.1%
39 | COCCn1cnc2c1c(=O)n(Cc1ccc(Br)cc1)c(=O)n2Cc1ccccc1 | 1.08%
40 | CN(CC(=O)Nc1cc(S(=O)(=O)N2CCCC2)ccc1Cl)Cc1ccc2c(c1)OCO2 | -3.25%
41 | COc1cccc(-c2nc(-c3ccc4c(c3)NC(=O)CO4)cs2)c1 | -6.15%
42 | CCCCN(CCCC)c1ccc(C(=O)c2ccccc2C(=O)O)c(O)c1 | -75.2%
43 | Cc1c(Cl)cccc1NC(=O)NC1CCCCC1 | 18.3%
44 | CCOCCc1c(O)nc(SCC)[nH]c1=O | 2.8%

Row | SMILES | hERG current change (%, negative = inhibition) at 10uM
45 | CSc1ccccc1NC(=O)COc1ccccc1C | 6.39%
46 | CCOC(=O)C1=NOC(Cn2cc(C#N)c(=O)n(C)c2=O)C1 (stereo not drawn) | 13.5%
47 | CC(COc1ccccc1)N(CCCl)Cc1ccccc1.Cl (stereo not drawn) | -1.35%
48 | O=C(Nc1cccc(Cl)c1)Nc1ccccc1C(=O)O | -5.74%
49 | CN1CCN(C(=O)c2cnn3c(C(F)(F)F)cc(-c4cccs4)nc23)CC1 | -12.3%
50 | O=C(Cn1cncn1)N/N=C/c1cccnc1 | 18.4%
51 | CCCc1cc(N2CCCC(C(=O)Nc3ccc(OC)cc3OC)C2)n2ncnc2n1 (stereo not drawn) | -51.4%
52 | O=C(COC(=O)c1cc([N+](=O)[O-])ccc1N1CCOCC1)NCCc1ccccc1 | -45.4%
53 | Cc1cc(N2CCOCC2)nc(SCC(=O)c2ccccc2)n1 | -8.29%
54 | CC(c1ccccc1)C1C(C#N)=C(N)OC2=C1C(=O)CC(C)(C)C2 (stereo not drawn) | -56.9%
55 | O=C(Cn1ncc2c(=O)oc3ccccc3c21)N1CCN(c2ccccn2)CC1 | -41%
56 | O=C(NCc1cccnc1)c1ccc(NS(=O)(=O)c2ccccc2)cc1 | -15.8%
57 | COc1ccc(Cn2c(=O)[nH]c3cc(C(=O)NCc4ccc5c(c4)OCO5)ccc3c2=O)cc1 | 14%
58 | CCOc1ccc(S(=O)(=O)NCCC(=O)NCc2cccnc2)cc1 | 4.31%
59 | O=C(CN1CCN(c2ccccc2)CC1)N1CCc2[nH]c3ccccc3c2C1 | -26.9%
60 | O=C(Nc1ccc2c(c1)OCO2)N1CCN(c2ncccn2)CC1 | -2.31%
61 | c1ccc(CSc2ncnc3sccc23)cc1 | -16%
62 | CSc1cccc(NC(=S)N(CCN(C)C)C(C)c2ccncc2)c1 (stereo not drawn) | -50.6%
63 | Cc1ccc(Nc2ccncc2S(N)(=O)=O)cc1 | -3.63%
64 | COCCN(C(=O)c1snc(C(N)=O)c1N)C(C(=O)NC1CCCCC1)c1ccc(N(C)C)cc1 (stereo not drawn) | -6.79%
65 | CCc1nc2sc(C#N)c(N)c2c2c1CCCC2 | 11.2%
66 | COc1ccccc1/C=C/C=N/NC(=O)c1cnccn1 | 13.5%

Row | SMILES | hERG current change (%, negative = inhibition) at 10uM
67 | COc1cc2ncnc(N[C@H](C)c3ccccc3)c2cc1OC | -14.8%
68 | CCCCCCc1ccc(N2C[C@H](CCCCC)[C@@H](CC(=O)NCc3ccc(OC)cc3)C2=O)cc1 | -16.6%
69 | O=C(COC(=O)[C@H](Cc1ccccc1)NC(=O)c1cccs1)Nc1c(Cl)cccc1Cl | -8.03%
70 | Oc1cccc(/C=N/NP(=S)(c2ccccc2)c2ccccc2)c1 | -7.93%
71 | Cc1c(C(=O)c2cccc(F)c2)c2ccccn2c1CCC#N | -2.51%
72 | COc1ccc([C@H]2CC(=O)C=C(c3ccc(C(=O)O)cc3)C2)cc1OC | 1.78%
73 | CCCn1c(SCC(=O)c2c(N)n(C3CC3)c(=O)[nH]c2=O)nnc1-c1ccncc1 | 8.49%
74 | COCC(C)n1c(SCc2nc(N)nc(Nc3ccccc3C)n2)nc2ccccc2c1=O (stereo not drawn) | 2.12%
75 | Cc1ccccc1C(=O)Nc1cccc(-c2nnc(SCC(=O)O)n2C)c1 | 11.4%
76 | Cc1ccc(S(=O)(=O)Nc2ccccc2)cc1C(=O)N1CCCC1 | -4.95%
77 | C=CCN1C=C2C(=O)C(C)(OC(=O)CCc3ccccc3)C(=O)C=C2C=C1c1ccc(C#N)cc1 (stereo not drawn) | -28.8%
78 | Cc1ccc(C(=O)c2oc3ccccc3c2NC(=O)c2cc(-c3cc(C)ccc3O)n[nH]2)cc1 | 18.5%
79 | O=C(COc1ccccc1)c1cn(Cc2ccccc2)c2ccccc12 | 7.62%
80 | N=c1c(C(=O)NCCc2ccccc2)cc2c(=O)n3ccccc3nc2n1CC1CCCO1 (stereo not drawn) | -90.7%
81 | COc1ccccc1NC(=O)Cn1c(=O)n(C)c(=O)c2sc3c(c21)COC(C)(C)C3 | 5.81%
82 | Cc1ccc(C(=O)Nc2ccc(S(=O)(=O)N3CCN(C)CC3)cc2)cc1 | -12.7%
83 | Cc1nnc(Sc2cc(C(=O)NCCCN(C)Cc3ccccc3)c3ccccc3n2)s1 | -56.2%
84 | CN(Cc1ccccc1)C(=O)c1ccc(NC(=O)Cc2cccc(NC(=O)C3CCCN(C(=O)C4CCCC4)C3)c2)cc1 (stereo not drawn) | 5.82%
85 | Cc1cccc(C(=O)NC(=S)Nc2ccccc2C(=O)O)c1 | 6%
86 | CC(C)CCC(C(=O)O)C(C)CC(=O)NC1CCCCC1 (stereo not drawn) | -1.38%
87 | COc1ccc(S(=O)(=O)NCC(=O)N(CC(=O)NCC2CCCO2)c2ccccc2C)cc1 (stereo not drawn) | 11%
